The values below come from PubChem BioAssay AID360 (National Center for Advancing Translational Sciences (NCATS), 2006).

Molecules are shown by their SMILES. Out of some 48,000 compounds screened, about 550 (1.1%) were called active. Inconclusive results (about 4%) are left out. Cut-off read from the data, not from the text of the source: active = potency below about 15 µM; inconclusive = mostly about 16 µM to 33 µM; inactive = weaker than that. This is one part of the list.
Potency is the fitted concentration of half-maximal effect.

UniProt P04062, sequence (P04062 whole entry, looked up): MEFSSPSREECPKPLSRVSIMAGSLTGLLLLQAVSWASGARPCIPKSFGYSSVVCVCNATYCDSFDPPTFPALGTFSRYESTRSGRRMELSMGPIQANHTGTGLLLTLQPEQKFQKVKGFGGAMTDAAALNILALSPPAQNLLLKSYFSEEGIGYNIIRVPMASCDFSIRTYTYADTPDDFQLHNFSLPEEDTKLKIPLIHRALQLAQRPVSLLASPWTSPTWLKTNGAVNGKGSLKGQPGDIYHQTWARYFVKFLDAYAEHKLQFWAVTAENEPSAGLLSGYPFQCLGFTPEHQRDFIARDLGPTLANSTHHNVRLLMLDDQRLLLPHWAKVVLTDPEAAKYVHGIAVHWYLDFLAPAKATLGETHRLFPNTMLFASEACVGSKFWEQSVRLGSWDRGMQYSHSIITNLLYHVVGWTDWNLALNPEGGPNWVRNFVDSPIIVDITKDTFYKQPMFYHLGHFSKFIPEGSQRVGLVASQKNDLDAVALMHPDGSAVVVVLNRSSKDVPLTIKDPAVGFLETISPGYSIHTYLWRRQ

For this assay, the target named is Lysosomal acid glucosylceramidase (Homo sapiens) (UniProt P04062). The assay is described as follows: Glucocerebrosidase.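 Note: the screen sought inhibitors.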 As to conditions: purified enzyme, resorufin glucoside fluorescence (screen aimed at inhibitors), 20 min. Summed up:
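Compounds titrated against 0.2 nM normal enzyme, 30 uM resorufin beta-D-glucopyranoside substrate, citrate/phosphate buffer with taurocholate and tween-20, pH 5.9. Reaction ran 20 min at room temperature; fluorescence (Ex 548/Em 600) gave AC50.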
Take `CCOC(=O)Nc1ccc2c(c1)Nc1ccccc1S2`: the Potency is inactive: > 76.9 µM.

Consider `O=C(c1ccc(N2C(=O)CCC2=O)cc1)N1CCN(c2ccccc2)CC1`, for which the Potency is inactive: > 76.9 µM.

As to `CCOc1ccc(C(=O)Nc2ccc(NC(=O)c3ccco3)c(Cl)c2)cc1Br`, the Potency was inactive: > 76.9 µM.

Regarding `CCOc1ccccc1C(=O)NC1CCN(Cc2nnnn2C2CCCC2)CC1`, the Potency was inactive: > 76.9 µM.

For the molecule `CSc1nc(-c2ccco2)nn1S(=O)(=O)c1ccccc1`, the Potency was inactive: > 76.9 µM. On to `CCOC(=O)c1cnn(-c2cc(C)nc3c(-c4ccccc4)cnn23)c1N`, for which the Potency was inactive: > 76.9 µM. For `Cc1ccc(C)c(NC(=O)CSc2nnc(CCCCCNC(=O)OC(C)(C)C)o2)c1`, the Potency is inactive: > 76.9 µM. On to `O=C(c1ccco1)N1C2C=CC(C2)C1(C(F)(F)F)C(F)(F)F` (centres undefined), for which the Potency is inactive: > 76.9 µM. On to `CCn1c(NCc2cccc(OC)c2OC)nc2ccccc21`, for which the Potency is inactive: > 76.9 µM. As to `COC(=O)CSc1nnc(CNC(=O)c2ccccc2OC)n1C`, the Potency was inactive: > 76.9 µM. For the molecule `Cc1cc2cc(CN(CCN3CCOCC3)C(=O)Nc3ccccc3F)c(=O)[nH]c2cc1C`, the Potency was inactive: > 76.9 µM. The value for `CCCn1c(=O)c(C(=O)NCc2ccc(OC)c(OC)c2)c(O)c2ccccc21` was inactive: > 76.9 µM. The value for `CCOC(=O)CSc1nc2c(c(=O)n(Cc3ccccc3Cl)c(=O)n2C)n1C` was inactive: > 76.9 µM; that for `CCn1c(SCC(=O)Nc2cccc(NC(=O)c3ccco3)c2)nnc1-c1cccs1` was inactive: > 76.9 µM; that for `COC(=O)C(C)Sc1nc2c(cnn2-c2ccc(C)cc2)c(=O)[nH]1` (centres undefined) was inactive: > 76.9 µM. The value for `O=C(c1ccc(S(=O)(=O)N2CCCCCC2)cc1)N1CCN(c2ccccn2)CC1` was inactive: > 76.9 µM; that for `Fc1cccc(CSc2ncnc3c2oc2ccccc23)c1` was inactive: > 76.9 µM; that for `Cc1cc(NC(=O)c2cc(-c3cccs3)on2)nn1Cc1ccc(Cl)cc1` was inactive: > 76.9 µM. Regarding `CCOC(=O)c1sc2ncnc(OC)c2c1C`, the Potency is inactive: > 76.9 µM. The value for `O=C(C1=C(O)C(=O)N(CCOCCO)C1c1cccs1)c1cccs1` (centres undefined) was inactive: > 76.9 µM; that for `Cn1c(SCc2nc(-c3cccs3)no2)nnc1C1CCCCC1` was inactive: > 76.9 µM; that for `COc1cc(N2C(=O)NC3CC2(C)Oc2ccc(Br)cc23)cc(OC)c1OC` (centres undefined) was inactive: > 76.9 µM. Turning to `CC(C)CC(c1nnnn1Cc1ccccc1)N1CCN(C(=O)c2ccco2)CC1` (centres undefined), the Potency is inactive: > 76.9 µM. As for `c1csc(CN2CCN(Cc3cccs3)C2c2cccs2)c1`, the Potency is inactive: > 76.9 µM. The value for `O=C(O)C1(c2cccc(Cl)c2)CCC1` was inactive: > 76.9 µM. The value for `O=C(CCC(=O)N(CC(=O)NC1CCCC1)C1CCCC1)Nc1ccccn1` was inactive: > 76.9 µM; that for `CN(C)c1oc(COc2ccc(F)cc2)nc1C#N` was inactive: > 76.9 µM.

Take `O=C(OC(C(=O)NC1CCCC1)c1ccccc1F)c1ccco1` (centres undefined): the Potency was inactive: > 76.9 µM. The value for `CCn1c(SCC(=O)N2CCCc3ccccc32)nc2c1c(=O)n(C)c(=O)n2C` was inactive: > 76.9 µM. The value for `O=C(NC1CC1)c1ccc(S(=O)(=O)NCC2CCCCC2)cc1` was inactive: > 76.9 µM; that for `COC(=O)C(CC(C)C)NC(=O)CSc1nc(-c2ccccc2)c(C#N)c(=O)[nH]1` (centres undefined) was inactive: > 76.9 µM; that for `Cc1ccc2cc3cc(C(=O)NCc4ccco4)oc3nc2c1` was inactive: > 76.9 µM. The value for `Cc1cc2ccccc2c(=O)n1CC(=O)NCC(=O)N1CCN(c2ccccc2F)CC1` was inactive: > 76.9 µM; that for `O=C(c1cc2ccccc2oc1=O)N(Cc1ccco1)Cc1cccs1` was inactive: > 76.9 µM. For the molecule `COc1ccc(NC(=O)c2cc(-c3ccc(C)o3)nc3ccccc23)cc1OC`, the Potency was inactive: > 76.9 µM. The value for `O=c1c2cc3c(=O)n(CC4CCCO4)c(=O)c3cc2c(=O)n1CC1CCCO1` (centres undefined) was inactive: > 76.9 µM. For the molecule `O=C(c1ccc(C(=O)N2CCN(c3ccccc3F)CC2)nc1)N1CCN(c2ccccc2F)CC1`, the Potency was inactive: > 76.9 µM. The value for `Cc1cccc(OCCCC(=O)Nc2nccs2)c1` was inactive: > 76.9 µM; that for `CCCCN(Cc1cc2cc(OC)ccc2[nH]c1=O)C(=O)COc1ccccc1` was inactive: > 76.9 µM; that for `Cc1cc(F)ccc1S(=O)(=O)Nc1ccccc1C(=O)Nc1ncn[nH]1` was inactive: > 76.9 µM.

For the molecule `Cc1ccc(NC(=O)c2ccccc2)s1`, the Potency is inactive: > 76.9 µM.

`CCOC(=O)N1CCN(S(=O)(=O)c2cc(OCC)ccc2OCC)CC1`: the Potency was inactive: > 76.9 µM.

With `CCOC(=O)C1=C(C)NC(=O)NC1c1ccco1` (centres undefined), the Potency was inactive: > 76.9 µM.

Consider `Cc1cccc(-c2nsc(SCC(=O)Nc3cc(C)on3)n2)c1`, for which the Potency is inactive: > 76.9 µM.

For `Cn1c(=O)c(C(=O)c2ccccc2)nc2ccccc21`, the Potency is inactive: > 76.9 µM. The value for `CCCC(=O)Nc1nc2ccc(NC(=O)c3ccc(Br)o3)cc2s1` was inactive: > 76.9 µM; that for `FC(F)(F)c1cc(-c2ccco2)nc(NCc2cccs2)n1` was inactive: > 76.9 µM. The value for `COc1ccc(NC(=O)N(CCO)Cc2cc3c(C)cc(C)cc3[nH]c2=O)cc1` was inactive: > 76.9 µM; that for `COc1ccccc1N1CCN(C(=O)CSc2nnc(-c3ccoc3C)o2)CC1` was inactive: > 76.9 µM; that for `Oc1ccc(Cl)cc1CNCC1CCCO1` (centres undefined) was inactive: > 76.9 µM. The value for `O=S(=O)(NC1CCCCC1NS(=O)(=O)c1ccc(F)cc1)c1ccc(F)cc1` (centres undefined) was inactive: > 76.9 µM; that for `Cc1ccc(N2C(=O)[C@@H]3Cc4ccccc4CN3C2=O)cc1` was inactive: > 76.9 µM.

For `Cc1onc(-c2c(F)cccc2Cl)c1C(=O)Nc1cccc(Cn2cccn2)c1`, the Potency was inactive: > 76.9 µM. The value for `Cc1ccc(-c2c(C)n([O-])c3c([n+]2=O)CCC3)o1` was inactive: > 76.9 µM; that for `CS(=O)(=O)c1ccc(Cl)c(NC(=O)COC(=O)CNC(=O)c2ccc(Br)o2)c1` was inactive: > 76.9 µM. `O=C(Nc1ccccc1)N(C1=NCCCCS1)c1ccccc1`: the Potency was inactive: > 76.9 µM. The value for `CN(Cc1nc(-c2ccccn2)no1)S(=O)(=O)c1ccc(Cl)cc1` was inactive: > 76.9 µM. For the molecule `COC(=O)C1C(=O)C2=C(CC1C)NC(=O)CC2c1cccc(C)c1` (centres undefined), the Potency was inactive: > 76.9 µM. The value for `Cc1ccc2[nH]c(=O)c(C(c3nnnn3CC3CCCO3)N3CCCc4ccccc43)cc2c1` (centres undefined) was inactive: > 76.9 µM. For `COc1cc2c(cc1OC)C(C(=O)N1CCN(c3ccccn3)CC1)C(c1cccs1)N(C)C2=O` (centres undefined), the Potency was inactive: > 76.9 µM.

`Cc1cc(C)n(/N=C/c2ccccc2)c(=O)c1C#N`: the Potency is inactive: > 76.9 µM. The value for `Cc1noc(C)c1COC(=O)Cc1ccc(Cl)c(Cl)c1` was inactive: > 76.9 µM. Regarding `CCc1ccc(C(C)NC(=O)c2cc(C)oc2C)cc1` (centres undefined), the Potency is inactive: > 76.9 µM. Turning to `O=S(=O)(Nc1ccc2c(c1)oc1ccccc12)N1CCCC1`, the Potency was inactive: > 76.9 µM. The value for `Cc1cc(C(=O)Oc2ccccc2C(=O)O)c(C)o1` was inactive: > 76.9 µM; that for `Cn1c(SCc2cc(=O)n3cc(Br)ccc3n2)nnc1C1COc2ccccc2O1` (centres undefined) was inactive: > 76.9 µM. On to `CCOc1ccccc1N(C(=O)c1snc(C(N)=O)c1N)C(C(=O)NC1CCCC1)c1ccco1` (centres undefined), for which the Potency was inactive: > 76.9 µM. Regarding `CCCS(=O)(=O)NCc1ccc2c(c1)cc(C)n2C`, the Potency is inactive: > 76.9 µM. The value for `COc1ccccc1Nc1nc(N)nc(CSCCO)n1` was inactive: > 76.9 µM. For the molecule `COCC(C)n1c(C)cc(C(=O)COC(=O)c2c(NC(C)=O)sc(C)c2C)c1C` (centres undefined), the Potency is inactive: > 76.9 µM. In the case of `C/C=C(\CS(=O)(=O)c1ccccc1)S(=O)(=O)c1ccccc1`, the Potency was inactive: > 76.9 µM. On to `O=C(NCc1ccc(F)cc1)c1ccc(CS(=O)(=O)Cc2ccc(F)cc2)o1`, for which the Potency was inactive: > 76.9 µM.

In the case of `Cc1cc(NC(=O)c2noc3c2CCCC3)nn1Cc1ccc(Cl)cc1`, the Potency is inactive: > 76.9 µM. Take `CCOC(=O)C1C(=O)CC(C)(O)C(C(=O)OCC)C1c1ccc(Br)o1` (centres undefined): the Potency is inactive: > 76.9 µM.

On to `CN(C)Cc1c(C#N)c2ccccc2n1C`, for which the Potency is inactive: > 76.9 µM. The value for `CSCCC(NC(=O)c1cncc(Br)c1)C(=O)O` (centres undefined) was inactive: > 76.9 µM. The value for `CC(=O)NC1(c2ccccc2)CCN(C(=O)N2CCOCC2)CC1` was inactive: > 76.9 µM; that for `CCN1CCN(C(=O)c2cc3nc(-c4ccccc4)cc(C(F)(F)F)n3n2)CC1` was inactive: > 76.9 µM; that for `COc1ccc(-c2nc(N3CCOCC3)nc3n[nH]c(N)c23)cc1` was inactive: > 76.9 µM. On to `CC1(C)CC2CC(C)(CN2C(=O)COC(=O)c2n[nH]c(=O)c3ccccc23)C1` (centres undefined), for which the Potency was inactive: > 76.9 µM. As to `Cc1ccc(S(=O)(=O)N2CCC(C(=O)N3Cc4ccccc4C3)CC2)cc1`, the Potency was inactive: > 76.9 µM.

Turning to `CCOC(=O)C1CCN(C(=O)CSc2nnc(-c3ccco3)n2-c2ccccc2)CC1`, the Potency was inactive: > 76.9 µM. The value for `COc1nccc(Nc2ccccc2)c1C#N` was inactive: > 76.9 µM. The value for `CCC(C)(C)n1nnnc1C(c1cccs1)N1CCc2ccccc21` (centres undefined) was inactive: > 76.9 µM; that for `Cc1ccccc1Cn1cc(NC(=O)c2noc3c2CC(C(C)(C)C)CC3)cn1` (centres undefined) was inactive: > 76.9 µM; that for `COC(=O)c1ccc(COc2ccc(C3C4=C(CCCC4=O)Nc4onc(C)c43)cc2)cc1` (centres undefined) was “inactive”. `COc1cccc(-n2c(CNC(=O)OC(C)(C)C)n[nH]c2=S)c1`: the Potency is inactive: > 76.9 µM. Consider `CC(C)CNC(=O)C1CCN(c2ccc(S(=O)(=O)N3CCOCC3)cc2Cl)CC1`, for which the Potency was inactive: > 76.9 µM. The value for `COc1ccc(CCNC(=O)CCCn2c(SCC#N)nc3ccccc3c2=O)cc1OC` was inactive: > 76.9 µM.
